# Measured values as given in the supplement of paper PMC8728848.
# Some of the results follow.
# B1: PX9961V-pdi-562-26-562 (Parabacteroides distasonis) (protein)
# chain: EIFSEITTDNYYQNSNNIYAALVNNYAKAFSTGWSDARYFLQEVTADQLMIPTRGKHGYNGGEYVRLHEHKWTVEENFVYNGWAAPFQGIALCNNTLSDFENLDFSTFKLTEETKNEYIAELRALRVWNYMFLIDFFRHVPIVTDIEEVKAQSTPLEVFNFMESELLAILPDLPKNRGVSRFDQAGVASILVRLYLNAEKWIGISKYDECEQMAQAILDGKYGEYSIDPDYRGPFRSGINGYRSKENIMEFAIKKNYFEASWLYNMWMHYQDRYSLDNDWQGWNGGNLAPSRDLYGNLYQDKLGMPFEKFPDGDIRKKAFRVISNDGDYEGFFLMGTQYKFDYEKGYGFTDEVITGTEEYNGKPLVYVDQVGRFSEGETGLAKGSHVIYGEENTGYRLIKFPWLPQSKDLFQMNSIPEIRLAEIYYSLAECKYRSGDKIGAARLLDVVRKRYYKAEDWSKFSYESNISKLTDDEFVDELGREFIGERHRRIDLIRWNRFSEGAWWDKTPDATNQDVFPIPYRALNANPLLKQTTAGF
# Key:
# Experiment in all cases: glycan array binding signal (z-score within array); higher = stronger binding
# Conditions in all cases: glycan notation: IUPAC condensed, linker removed
# [1] = target: Man(a1-2)Man(a1-3)[Man(a1-2)Man(a1-6)]Man(a1-6)[Man(a1-2)Man(a1-2)Man(a1-3)]Man
# Outline: (§1)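 The binding signal is a Z-score computed within each array and averaged over linkers. Arrays of the same protein sequence at different concentrations or buffers were also averaged together. Data originate from 3228 arrays in the Consortium for Functional Glycomics database, kept only where the protein sequence was available.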
# [2] = target: Man(a1-2)Man(a1-3)[Man(a1-2)Man(a1-6)]Man(a1-6)[Man(a1-2)Man(a1-2)Man(a1-3)]Man(b1-4)GlcNAc(b1-4)GlcNAc
# Outline: as §1
# [3] = target: Man(a1-2)Man(a1-3)[Man(a1-6)]Man(a1-6)[Man(a1-2)Man(a1-3)]Man(b1-4)GlcNAc(b1-4)GlcNAc
# Outline: as §1
# [4] = target: Man(a1-2)Man(a1-6)[Man(a1-3)]Man(a1-6)[Man(a1-2)Man(a1-2)Man(a1-3)]Man
# Outline: as §1
# [5] = target: Man(a1-2)Man(a1-6)[Man(a1-3)]Man(a1-6)[Man(a1-2)Man(a1-2)Man(a1-3)]Man(b1-4)GlcNAc(b1-4)GlcNAc
# Outline: as §1
# [6] = target: Man(a1-3)[Man(a1-6)]Man
# Outline: as §1
# [7] = target: Man(a1-3)[Man(a1-6)]Man(a1-6)[Man(a1-2)Man(a1-3)]Man(b1-4)GlcNAc(b1-4)GlcNAc
# Outline: as §1
# [8] = target: Man(a1-3)[Man(a1-6)]Man(a1-6)[Man(a1-3)]Man
# Outline: as §1
# [9] = target: Man(a1-3)[Man(a1-6)]Man(a1-6)[Man(a1-3)]Man(b1-4)GlcNAc(b1-4)GlcNAc
# Outline: as §1
# [10] = target: Man(a1-3)[Man(a1-6)]Man(b1-4)GlcNAc(b1-4)GlcNAc
# Outline: as §1
# [11] = target: Man(a1-3)[Man(a1-6)]Man(b1-4)GlcNAc(b1-4)[Fuc(a1-6)]GlcNAc
# Outline: as §1
# [12] = target: Man(a1-6)Man
# Outline: as §1
# [13] = target: Man(b1-4)GlcNAc
# Outline: as §1
# [14] = target: MurNAc(b1-4)GlcNAc
# Outline: as §1
# [15] = target: Neu5Ac(a2-3)Gal
# Outline: as §1
# [16] = target: Neu5Ac(a2-3)Gal(b1-3)GalNAc
# Outline: as §1
# [17] = target: Neu5Ac(a2-3)Gal(b1-3)GalNAc(b1-3)Gal(a1-4)Gal(b1-4)Glc
# Outline: as §1
# [18] = target: Neu5Ac(a2-3)Gal(b1-3)GalNAc(b1-4)[Neu5Ac(a2-3)]Gal(b1-4)Glc
# Outline: as §1
# [19] = target: Neu5Ac(a2-3)Gal(b1-3)GalNAc(b1-4)[Neu5Ac(a2-8)Neu5Ac(a2-3)]Gal(b1-4)Glc
# Outline: as §1
# [20] = target: Neu5Ac(a2-3)Gal(b1-3)GalNAc6S
# Outline: as §1
# [21] = target: Neu5Ac(a2-3)Gal(b1-3)GlcNAc
# Outline: as §1
# [22] = target: Neu5Ac(a2-3)Gal(b1-3)GlcNAc(b1-2)Man
# Outline: as §1
binder,measurement,setting,value
B1,glycan array binding signal (z-score),[1],-0.5
same,glycan array binding signal (z-score),[2],0.278
same,glycan array binding signal (z-score),[3],0.132
same,glycan array binding signal (z-score),[4],-0.464
same,glycan array binding signal (z-score),[5],-0.121
same,glycan array binding signal (z-score),[6],-0.443
same,glycan array binding signal (z-score),[7],0.928
same,glycan array binding signal (z-score),[8],0.428
same,glycan array binding signal (z-score),[9],-0.022
same,glycan array binding signal (z-score),[10],-0.564
same,glycan array binding signal (z-score),[11],0.015
same,glycan array binding signal (z-score),[12],0.193
same,glycan array binding signal (z-score),[13],-0.517
same,glycan array binding signal (z-score),[14],-0.496
same,glycan array binding signal (z-score),[15],-0.711
same,glycan array binding signal (z-score),[16],-0.429
same,glycan array binding signal (z-score),[17],-0.516
same,glycan array binding signal (z-score),[18],-0.122
same,glycan array binding signal (z-score),[19],-0.57
same,glycan array binding signal (z-score),[20],-0.819
same,glycan array binding signal (z-score),[21],-0.498
same,glycan array binding signal (z-score),[22],0.197
